# Source: PubChem BioAssay AID624170 (National Center for Advancing Translational Sciences (NCATS), 2012)
# In all, about 410,000 compounds went through this assay and about 850 (0.21%) were called active. This list was built around the results that the source calls inconclusive (neither active nor inactive); the mix of calls is not that of the screen. The call rests on the fitted dose curve; in most records, active means well fitted inhibition curve with a large enough effect; inconclusive means small, poorly fitted or top-dose-only effect, or another doubt; inactive means no such curve, though single readings can be large or run the other way. Potencies of inconclusive entries are left out as doubtful fits.
# Molecular target: Glutaminase kidney isoform, mitochondrial (Homo sapiens) (UniProt O94925)
# Experiment: qHTS for Inhibitors of Glutaminase (GLS)
# Conditions: GLS enzymatic activity, qHTS titration; series mostly up to 45.5 µM
# Method in brief: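 Enzyme dispensed in phosphate buffer (45 mM, pH 8.2, 0.02% Tween-20), compounds pinned in, then 1 mM L-glutamine solution and the glutamate oxidase–HRP–Amplex Red mix added; fluorescence read immediately and again after 30 min at room temperature.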
# Potency means the concentration at half of the fitted maximal effect; tags describe the fitted curve by direction and shape.
# Chain of UniProt O94925 (O94925 whole entry, looked up, canonical isoform): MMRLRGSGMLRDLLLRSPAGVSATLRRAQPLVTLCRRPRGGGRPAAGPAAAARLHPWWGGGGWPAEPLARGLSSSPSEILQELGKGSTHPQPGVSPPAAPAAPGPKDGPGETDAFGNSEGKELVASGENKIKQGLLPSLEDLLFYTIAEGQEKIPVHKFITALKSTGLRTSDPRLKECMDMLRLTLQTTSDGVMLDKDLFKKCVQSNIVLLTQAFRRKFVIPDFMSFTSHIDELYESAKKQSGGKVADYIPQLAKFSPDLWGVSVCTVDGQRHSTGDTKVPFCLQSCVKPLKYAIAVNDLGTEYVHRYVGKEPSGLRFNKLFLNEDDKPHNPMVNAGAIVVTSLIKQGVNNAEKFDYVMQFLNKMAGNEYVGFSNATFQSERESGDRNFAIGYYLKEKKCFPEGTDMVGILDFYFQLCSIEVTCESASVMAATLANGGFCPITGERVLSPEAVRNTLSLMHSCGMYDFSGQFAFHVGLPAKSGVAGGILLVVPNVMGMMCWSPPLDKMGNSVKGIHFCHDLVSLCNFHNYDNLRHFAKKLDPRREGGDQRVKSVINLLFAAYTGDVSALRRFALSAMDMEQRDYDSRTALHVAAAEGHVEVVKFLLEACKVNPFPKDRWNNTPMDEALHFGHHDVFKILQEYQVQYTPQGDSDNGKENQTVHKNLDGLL
row,Compound,Potency
1,COc1cc(NC(=O)COc2ccccc2)ccc1NC(=O)c1ccco1,inactive
2,CCc1ccccc1N(CC(=O)NCC1CCCO1)C(=O)CCC(=O)Nc1nccs1 (configuration not stated),"inconclusive [inhibitor, single point]"
3,Cc1nnc(NCCc2ccccc2)[nH]c1=O,inactive
4,COc1ccc(-c2n[nH]c(=S)n2-c2ccc3c(c2)OCCO3)cc1,inactive
5,O=C(O)c1ccc(/C=N/n2cc(-c3ccccc3)[nH]c2=S)cc1,"inconclusive [inhibitor, full curve]"
6,COC(=O)c1ccc(NCc2cc(O)ccc2O)cc1O,"inconclusive [inhibitor, single point]"
7,O=c1c2ccccc2nc(-c2ccco2)n1/N=C/c1ccccc1O,inactive
8,O=C(COC(=O)c1cccc(OC(F)F)c1)Nc1ncccn1,"inconclusive [inhibitor, single point]"
9,COc1ccc(S(=O)(=O)N2CCOCC2)cc1NC(=O)c1cc2ccccc2o1,inactive
10,O=C(/C=C/c1ccccc1Cl)c1cccnc1,inactive
11,COc1ccc(-n2c(COc3ccc(C)cc3)n[nH]c2=S)cc1,inactive
12,COc1ccc2cc(C(=O)C3CCCN(Cc4cnc(C)s4)C3)ccc2c1 (configuration not stated),inactive
13,O=c1c2ccccc2oc2nc(C3CCCCC3)n(Cc3ccco3)c(=O)c12,"inconclusive [inhibitor, single point]"
14,COc1cc(/C=C2\C(=N)N3N=C(S(C)(=O)=O)SC3=NC2=O)ccc1OCCOc1ccc(C)cc1,"inconclusive [inhibitor, single point]"
15,CCOC(=O)C1CCN(C(=O)COc2ccc(Br)cc2C)CC1,"inconclusive [inhibitor, single point]"
16,O=C(Nc1nnc(S(=O)(=O)N2CCCCCC2)s1)c1ccc(Br)cc1,inactive
17,O=C(Cn1ncc2c([nH]c3ccccc32)c1=O)Nc1cc(F)ccc1F,inactive
18,O=C(c1cccc(F)c1)N1CCN(Cc2ccc3c(c2)OCO3)CC1,inactive
19,CS(=O)(=O)Nc1cccc(C(=O)OCCCOc2ccc(F)cc2)c1,"inconclusive [inhibitor, single point]"
20,Brc1csc(C=Nc2ccc3c(c2)OCCOCCOCCOCCO3)c1,"inconclusive [inhibitor, partial curve, poor fit]"
21,O.O.O.O.O.O.O.O=S(=O)([O-])[O-].[Co+2],"inconclusive [inhibitor, partial curve, poor fit]"
22,Cc1noc(C)c1COC(=O)COc1ccc2c(C)cc(=O)oc2c1,"inconclusive [inhibitor, full curve, poor fit]"
23,S=c1nc(-c2ccc(Br)cc2)oc2c1CCCC2,"inconclusive [inhibitor, single point]"
24,Nc1ccc(-c2sc(N)nc2-c2ccccc2)cc1,"inconclusive [inhibitor, single point]"

row,Compound,Potency
1,Cc1nc(SCC(=O)NCCc2ccccc2)n[nH]1,"inconclusive [inhibitor, single point]"
2,COc1ccccc1/C=C/C=N/n1c(C2CCCCC2)n[nH]c1=S,"inconclusive [inhibitor, partial curve, poor fit]"
3,CCN(CC)S(=O)(=O)c1ccc(Cl)c(NC(=O)COC(=O)/C=C/c2ccc(O)c(OC)c2)c1,"inconclusive [inhibitor, partial curve]"
4,CC(C)c1ccc(OCC(=O)N2CCCCCC2)c(Br)c1,"inconclusive [inhibitor, single point]"
5,CCn1cc(C(=O)NCC(=O)NC(C)(C)CO)c(=O)c2cc3c(cc21)OCO3,"inconclusive [inhibitor, single point]"
6,COc1ccc(C(CC(=O)N2CCCCC2)c2c(OC)cc(OC)c3c(-c4ccccc4)cc(=O)oc23)cc1 (configuration not stated),"inconclusive [inhibitor, single point]"
7,COC(=O)c1sccc1S(=O)(=O)Nc1ccc(C(O)(C(F)(F)F)C(F)(F)F)cc1,"inconclusive [inhibitor, single point]"
8,OC(CCCN1CCC(O)(c2ccc(Cl)cc2)CC1)c1ccc(F)cc1 (configuration not stated),inactive
9,COc1cc(/C=N/NC(=O)C(=O)NCc2ccco2)ccc1O,"inconclusive [inhibitor, partial curve]"
10,Cc1cccc(N2CCN(C(=O)C3CCC(=O)N(C4CC4)C3)CC2)c1C (configuration not stated),"inconclusive [inhibitor, single point]"
11,O=C(CCn1ccnc1)Nc1cc(Cl)ccc1O,"inconclusive [inhibitor, partial curve, poor fit]"
12,COc1cc(NS(=O)(=O)c2ccc(Nc3nc(-c4ccccc4)cs3)cc2)nc(OC)n1,"inconclusive [inhibitor, partial curve]"
13,CN1CCCC(CC2c3ccccc3Sc3ccccc32)C1 (configuration not stated),inactive
14,CS(=O)(=O)c1cccc(-c2nnc(NC(=O)c3ccc4ncsc4c3)o2)c1,inactive
15,Cc1csc(N/N=C/c2c(F)cccc2Cl)n1,"inconclusive [inhibitor, single point]"
16,COC(=O)COc1ccc(-c2nccc(-c3ccc(Br)cc3)n2)cc1,"inconclusive [inhibitor, single point]"
17,CC1=C(C(=O)Nc2ccccc2C)C(c2ccc[nH]2)n2ncnc2N1 (configuration not stated),"inconclusive [inhibitor, partial curve]"
18,COc1ccc(OCc2nc(N)nc(Nc3cccc(C)c3C)n2)cc1,"inconclusive [inhibitor, single point]"
19,CCN1CCN(C(CNS(=O)(=O)c2cccs2)c2cccnc2)CC1 (configuration not stated),"inconclusive [inhibitor, single point]"
20,Cn1c(=O)n(Cc2ccccc2)c(=O)c2c1nc1n2CCS1,active: 11.2 µM
21,CC1CCCN(C(=O)Cc2cn(Cc3cccc(Cl)c3)c3ccccc23)C1 (configuration not stated),inactive
22,c1ccc(CCc2nn3c(Cn4nnc5ccccc54)nnc3s2)cc1,"inconclusive [inhibitor, single point]"
23,Fc1ccc(N/N=C(/c2ccccc2)c2ccccn2)cc1,"inconclusive [inhibitor, single point]"
24,CCCCCCn1c(=O)n2n(c1=O)C[C@]1(OC(=O)Nc3cccs3)CN(S(=O)(=O)c3ccc(C)cc3)C[C@]1(O)C2,inactive

row,Compound,Potency
1,Cc1cccc(NC(=S)N/N=C/c2cccn2Cc2ccc(F)cc2)c1,inactive
2,CC(=O)Nc1cccc(C(=O)OC(C)C(=O)NC2CCCc3ccccc32)c1 (configuration not stated),"inconclusive [inhibitor, partial curve, poor fit]"
3,COc1ccc(N(CC(=O)Nc2cc(Cl)ccc2OC)S(=O)(=O)c2c(C)[nH]c(=O)[nH]c2=O)cc1,inactive
4,C=C/C(C)=C/CC1C(=C)CCC2C(C)(C(=O)O)CCCC12C (configuration not stated),"inconclusive [inhibitor, partial curve]"
5,O=C(NC1CCC(O)CC1)c1cc(-c2ccco2)nc2ccccc12 (configuration not stated),"inconclusive [inhibitor, single point]"
6,COc1ccc(OCC(O)Cn2ccnc2C)cc1 (configuration not stated),inactive
7,O=C1C=CC(=O)C(C2=C3C(=O)N(CCc4ccccc4)CC(=O)N3CCC2)=C1,"inconclusive [inhibitor, single point]"
8,O=C(CCc1ccc(O)c(O)c1)N/N=C/c1ccc2c(c1)OCO2,"inconclusive [inhibitor, single point]"
9,O=C(CSc1nc2ccccc2o1)N/N=C/c1ccc(O)c(O)c1,"inconclusive [inhibitor, single point]"
10,N#Cc1cc(C(=O)c2cc(F)ccc2O)cn(-c2nccs2)c1=O,"inconclusive [inhibitor, partial curve]"
11,CC1(C)CC(=O)C=C(c2ccc(-c3ccccc3)cc2)C1=O,inactive
12,CC1(C)CCc2cc(-c3ccnc(=S)[nH]3)ccc2O1,"inconclusive [inhibitor, single point]"
13,CCC(C)(C)C1CCC2(CC1)NC(=O)N(CC(=O)N(C)Cc1ccc(OC(F)F)cc1)C2=O (configuration not stated),"inconclusive [inhibitor, single point]"
14,Cc1cc(=O)oc2c3c(cc(OCC(=O)NC(Cc4ccc(Cl)cc4)C(=O)O)c12)OC(C)(C)CC3 (configuration not stated),"inconclusive [inhibitor, single point]"
15,O=C(NNS(=O)(=O)c1ccc(F)cc1)c1ccc(O)cc1,inactive
16,O=C(OCc1ccco1)c1ccc2c(c1)N(Cc1ccc([N+](=O)[O-])cc1)C(=O)c1ccccc1S2,inactive
17,O=c1[nH]sc2ccccc12,"inconclusive [inhibitor, single point]"
18,O=S1(=O)C=C(SCCN2CCCCC2)c2ccccc21,inactive
19,CCCn1c(=O)c2c(C(=O)OCC)cc(-c3ccco3)nc2n(CCC)c1=O,inactive
20,Cc1c(N(C)C)nc2ccccc2c1N,inactive
21,O=C(NCc1cccs1)c1cnc2ccccn2c1=O,"inconclusive [inhibitor, single point]"
22,COc1cccc(C(=O)NC(=S)Nc2ccc3oc(=O)ccc3c2)c1,inactive
23,CCn1c(=O)c(C(=O)NNS(=O)(=O)c2ccc(NC(=O)OC)cc2)c(O)c2ccccc21,"inconclusive [inhibitor, partial curve]"
24,CN(C)S(=O)(=O)c1cccc(C(=O)OCC(=O)N2c3ccccc3NC(=O)C2(C)C)c1,"inconclusive [inhibitor, single point]"
